# In all, about 45,000 compounds went through this assay and about 200 (0.44%) were called active. Another 7% or so got no clear call; they are omitted. The call rests on the fitted dose curve; in most records, active means well fitted activation curve with a large enough effect; inconclusive means small, poorly fitted or top-dose-only effect; inactive means no such curve, though single readings can be large or run the other way. Some of the results follow.
# Assay: qHTS of TDP-43 Inhibitors: NCGC Sytravon Library Screen; further: 0% is about no effect; nearly all actives have a fitted effect of over 55% in size
# Conditions: yeast TDP-43 toxicity rescue, BacTiter-Glo growth, 24 h; series mostly up to 46.1 µM; growth rescue (activation): at the top concentration
# Method in brief: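 TDP-43-expressing yeast, pregrown in raffinose, seeded at OD600 0.02 in galactose medium with compound for 24 hr at 30 deg C. Growth read by BacTiter-Glo luminescence, so rescue of toxicity appears as activation.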
row,SMILES,growth rescue (activation)
1,CC(C)(Oc1ccc(Cl)cc1)C(=O)NCCN1C(=O)S/C(=C/c2cccnc2)C1=O,inactive: 5.67%
2,CC(C)c1ccccc1NC(=O)COc1ccc(C(=O)NCCc2ccccc2)cc1,inactive: 25%
3,O=C(CCCOc1ccc(Cl)cc1Cl)Nc1ccccn1,inactive: 13.7%
4,O=C(Nc1ccc(Br)cc1)Nc1ccccc1F,inactive: 23.6%
5,Cc1cc(C)cc(N2C(=O)CC(Cn3nc(C)cc3C)C2=O)c1 (configuration not stated),inactive: 4.22%
6,CC(C)c1ccc(NC(=O)CN2C(=O)NC3(CCCC3)C2=O)cc1,inactive: 5.38%
7,Cc1ccc(S(=O)(=O)Nc2ccc(N3CCN(C)CC3)nc2)cc1,inactive: -10.1%
8,Cc1[nH]c2ccccc2c1C(Nc1nccs1)c1ccncc1 (configuration not stated),inactive: 23.1%
9,O=C(COC(=O)c1ccco1)Nc1nc2c(F)c(F)c(F)cc2s1,inactive: -20.3%
10,O=C(Nc1nnc([C@H]2C[C@H](O)[C@@H](CO)O2)s1)Nc1cccc2c1CCCC2,inactive: 4.85%
11,Cc1ccc(-n2nc3ccc(NC(=O)COc4ccccc4)cc3n2)cc1Cl,inactive: 12.6%
12,CC(=O)Nc1ccc(S(=O)(=O)Nc2nccc(/C=C/c3ccc(Cl)cc3)n2)cc1,inactive: 11.5%
13,COc1ccccc1CCC(=O)NCCCn1ccc2ccccc21,inactive: 35.2%
14,COc1ccc(CN(C(=O)CCC(=O)Nc2cc(C)on2)C(C(=O)NC(C)(C)C)c2cccc(OC)c2OC)cc1 (configuration not stated),inactive: 10.8%
15,O=C(O)c1ccccc1C(=O)N1CCN(S(=O)(=O)c2cccc(C(F)(F)F)c2)CC1,inactive: 16%
16,NC(=O)Cn1cnc(-c2ccccc2)c1,inactive: 10.6%
17,Cc1cccc(C(=O)N2CC(=O)Nc3ccc(F)cc3C2c2ccc(F)cc2)c1 (configuration not stated),inactive: 7.6%
18,CCOC(=O)c1c(NC(=O)COc2ccc(C)cc2C(C)(C)C)sc2c1CCC(C)C2 (configuration not stated),inactive: 7.2%
19,CCC[C@@H](NS(=O)(=O)c1ccc(C)cc1)C(=O)Oc1ccc2c3c(c(=O)oc2c1)CCC3,inactive: 15.2%
20,COc1ccc(Cl)cc1-c1nc(SCC(=O)N(C)C2CCS(=O)(=O)C2)n[nH]1 (configuration not stated),inactive: 21.6%
21,COc1cccc2cc(C(C)N(CCCN3CCOCC3)C(=S)Nc3cccc(C)c3)oc12 (configuration not stated),inactive: -19.9%
22,Cn1c(N)c(N2CCCCC2)c(=O)n(CC(=O)Nc2cccc(C#N)c2)c1=O,inactive: 1.81%

row,SMILES,growth rescue (activation)
1,Cc1cc(NC(=O)C2Oc3ccccc3OC2C)no1 (configuration not stated),inactive: -5.03%
2,Cc1ccc(-n2c(=O)c3sccc3n(CC(=O)NC3CCCC3)c2=O)cc1,inactive: -14.4%
3,Cn1nc(C(C)(C)C)cc1C(=O)N1CCCCC1c1cc(C(=O)Nc2ccc3c(c2)OCO3)no1 (configuration not stated),inactive: 15.1%
4,O=C(CSc1nncn1-c1cccnc1)N(c1ccccc1)c1ccccc1,inactive: -7.61%
5,Cc1cc(NCc2ccco2)n2c(nc3ccccc32)c1C#N,inactive: -6.61%
6,CCCCN1C(=O)c2ccc(C(=O)OCC(=O)NCCc3ccc(S(N)(=O)=O)cc3)cc2C1=O,inactive: 13.7%
7,COCCCNC(=O)C(C#N)c1nc2ccccc2nc1N1CCCC1 (configuration not stated),inactive: 8.89%
8,Cc1ccc(-c2ccc(C(=O)NCCCNC(=O)c3cnccn3)o2)cc1Cl,inactive: 29.4%
9,Cc1ccc(S(=O)(=O)NN2C(=O)c3ccccc3NC2C)cc1 (configuration not stated),inactive: 8.11%
10,CCOC(=O)c1c(-c2ccc(-c3ccccc3)cc2)csc1NC(=O)CNCCN(C)C,inactive: -32.1%
11,Cn1cc(C(=O)N/N=C/c2ccc3c(c2)OCO3)c2ccccc21,inactive: 10.9%
12,CCOC(=O)Cn1ncn(-c2ccc(OC(F)(F)F)cc2)c1=O,inactive: -1.67%
13,O=C(NC12CC3CC(CC(C3)C1)C2)c1ccccc1,inactive: 22.5%
14,C/C(=N\Nc1ccc2nncn2n1)c1ccc(Br)s1,inactive: 5.42%
15,COc1ccc(CNC(=O)CN2C(=O)NC(C)(c3cccc4ccccc34)C2=O)cc1OC (configuration not stated),inactive: -13.8%
16,COc1ccc(C(=O)N2CCCC(C)(C(=O)NS(=O)(=O)C3CC3)C2)cc1 (configuration not stated),inactive: -2.59%
17,CCc1ccc(NC(=O)Cc2ccc(-n3cccc3)cc2)cc1,inactive: 17.7%
18,CC(C)N1CCC(n2nccc2NC(=O)c2ccc3c(c2)OCO3)CC1,inactive: 9.44%
19,COc1cc(C(=O)NCC(=O)N/N=C/c2cccnc2)cc(OC)c1OC,inactive: 7.59%
20,COc1cccc(CNc2nc(NC(C)C)nc3ccsc23)c1OC,inactive: 9.33%
21,COc1ccc(CNS(=O)(=O)c2ccc(-n3cnnn3)c(OC)c2)cc1,inactive: 6.09%
22,COc1ccc(C2c3ccc4ccccc4c3Oc3ncn4nc(Cc5ccccc5)nc4c32)cc1OC (configuration not stated),inactive: -2.15%

row,SMILES,growth rescue (activation)
1,Cc1ccc(S(=O)(=O)N2c3ccccc3CC2C)cc1 (configuration not stated),inactive: -27%
2,O=C(O)c1cnn(-c2ccccc2)c1-c1ccncc1,inactive: -4.48%
3,CCOC(=O)N1CCN(C(=S)NC(=O)c2ccc(F)cc2)CC1,inactive: 10.3%
4,COc1cccc(CN2CCC(N(CCc3ccccc3)Cc3ccccc3)CC2)c1OC,inactive: -51.1%
5,CCOC(=O)c1sc(N2C(=O)C(O)=C(C(=O)c3ccco3)C2c2ccco2)nc1C (configuration not stated),inactive: -2.12%
6,COc1cc(C(=O)Nc2ccc(C)cc2)c2ccccc2n1,inactive: -5.52%
7,Cc1ccc(NC(=O)N2CCN(c3ccc(Cl)c(Cl)c3)CC2)cc1,inactive: 12.2%
8,COc1c(Br)cc2c(C)c(C(=O)O)oc2c1Br,inactive: 27.1%
9,CC(C)(C)NC(=O)CN(C(=O)c1csnn1)c1ccccc1-c1ccccc1,inactive: -5.05%
10,Cc1ccc(F)cc1CNC(=O)c1cc(COc2ccc3ncccc3c2)on1,inactive: 7.06%
11,CC(C)(C)c1nnc(NC(=O)Cc2ccc(Br)cc2)s1,inactive: 0.69%
12,CC1(C(=O)NCc2ccc3c(c2)OCO3)CCN1C(=O)Cc1cccc2ccccc12 (configuration not stated),inactive: 22.8%
13,COC(=O)C1CCN(CC(=O)Nc2ccc3c(c2)OCCO3)CC1,inactive: -21.6%
14,CCOc1ccc(N2C(=O)CC(N(Cc3ccco3)C(=O)CCC(=O)O)C2=O)cc1 (configuration not stated),inactive: 9.25%
15,CCN(C(=O)CSc1nnc(Nc2cccc(C)c2C)s1)C1CCS(=O)(=O)C1 (configuration not stated),inactive: -13.8%
16,Cc1nn(C(C)C(=O)NC2C(=O)N3C(C(=O)O)=C(CSc4nnnn4C)CSC23)cc1Cl (configuration not stated),inactive: -8.9%
17,COc1ccccc1OCC(=O)Nc1cc(S(=O)(=O)N2CCCCC2)ccc1N1CCCCC1,inactive: 8.32%
18,O=C(CSc1nc2ccccc2c(=O)n1-c1ccc(OC(F)F)cc1)NCc1cccs1,inactive: 8.5%
19,Cc1nnc(SCC(=O)Nc2ccc(S(N)(=O)=O)cc2)n(N)c1=O,inactive: 1.59%
20,CC1=CC(c2ccccc2)n2nnnc2N1 (configuration not stated),inactive: 9.72%
21,Cc1ccc(C(=O)OCC(=O)c2c[nH]c3ccccc23)cc1,inactive: 24.5%
22,Cc1ccccc1OCC(=O)NC(=S)Nc1ccc(N2CCCC2)cc1,inactive: -2.63%

row,SMILES,growth rescue (activation)
1,Oc1[nH]c2ccccc2c1N=Nc1ccccc1F,inactive: 20.8%
2,COc1cc2c(cc1OC)C(SC)=NC1(CCCC1)C2,inactive: 1.49%
3,Cc1cc(NC(=O)COc2ccc(C)c(C)c2)no1,inactive: 15.5%
4,CCC(OC(=O)c1ccco1)C(=O)NCc1ccc2c(c1)OCO2 (configuration not stated),inactive: -31.8%
5,CC1(C)C2CCC(C2)C1(C)NC(=O)CNCC1CCCCC1 (configuration not stated),inactive: 4.31%
6,S=C(NCCCc1ccccc1)Nc1ccc(Cl)cc1,inactive: -91.1%
7,O=C(CCCOc1ccccc1)NNC(=O)c1ccncc1,inactive: -12.9%
8,COc1ccc(C2/C(=C(/O)c3ccc(C)cc3)C(=O)C(=O)N2CC2CCCO2)cc1OC (configuration not stated),inactive: -2.2%
9,O=C(NCc1ccccc1Cl)C1CCCN(S(=O)(=O)c2cccc3nonc23)C1 (configuration not stated),inactive: -4.57%
10,CC(Oc1ccccc1Cl)c1nnc(N)s1 (configuration not stated),inactive: 19.7%
11,Cc1ccnc(NS(=O)(=O)c2ccc(N3C(=O)Nc4ccccc4N3O)cc2)c1,inactive: -4.24%
12,CC1CC(C)CN(C(=O)COc2cccnc2[N+](=O)[O-])C1 (configuration not stated),inactive: -8.57%
13,Cc1cc(C)n(CC2CC(=O)N(c3ccc(C)c(Cl)c3)C2=O)n1 (configuration not stated),inactive: 7.76%
14,Cc1cc(NC(=O)CCC(=O)N(Cc2ccco2)C(C(=O)NC2CCCC2)c2ccc(F)cc2)no1 (configuration not stated),inactive: 19.4%
15,CCn1cc(C2C3=C(CC(C)(C)CC3=O)N(c3ccccc3)C3=C2C(=O)CC(C)(C)C3)c(C)n1,inactive: 6.35%
16,CCCCCCCC(=O)NNC(=O)c1c(O)c2ccccc2n(CC)c1=O,inactive: -17.2%
17,Clc1ccc(-c2c[n+](Cc3ccc(Br)cc3)c3n2CCCCC3)cc1,inactive: -8.09%
18,COc1ccccc1N=c1oc2cc(O)ccc2cc1C(N)=O,inactive: -33.7%
19,O=C(CSc1nc2ccc([N+](=O)[O-])cc2s1)NCC1CCCO1 (configuration not stated),inactive: 13.6%
20,O=C(COC(=O)c1cccc(Br)c1)NCC1CCCO1 (configuration not stated),inactive: 10.9%
21,COc1cc(/C=N/NC(=S)NC(C)C)ccc1OCC(=O)Nc1c(C)cc(C)cc1C,inactive: 13.2%
22,Cc1ccc(CNC(=O)C(C)C2Sc3ccccc3NC2=O)cc1 (configuration not stated),inactive: -12%

row,SMILES,growth rescue (activation)
1,Cc1ccc(CSC2=Nc3ccccc3C3=NC(=O)CN23)cc1,inactive: 5.6%
2,COc1cc(/C=C2\CCCc3c2nc2ccccc2c3C(=O)O)cc([N+](=O)[O-])c1O,inactive: -32.8%
3,CC(=O)Nc1ccc(S(=O)(=O)N2CCN(S(=O)(=O)N3CCC(C)CC3)CC2)cc1,inactive: 16.3%
4,Cc1csc(=Nc2ccccc2)n1CCO,inactive: 8.7%
5,CN(C(=O)COC(=O)c1cncc(Br)c1)C1CCCCC1,inactive: -14.1%
6,CC(=O)Nc1ccc(SCC(=O)NCC2(N3CCCCC3)CCCCC2)cc1,inactive: 13.4%
7,Cc1ccc(OCC(=O)N2CCN(S(C)(=O)=O)CC2)cc1,inactive: 6.89%
8,N#Cc1ccccc1NC(=O)COC(=O)c1c[nH]c2ccccc12,inactive: 4.77%
9,Cc1cccc(C(=O)n2c(=S)nc3cc(C)ccn32)c1,inactive: 17.2%
10,COC(=O)c1cnc(NC(=O)C2(C)CCCN(C(C)=O)C2)s1 (configuration not stated),inactive: 6.63%
11,COc1ccc(C2=C(C)CC(C)(C)NC2=O)cc1OC,inactive: 10.5%
12,COc1ccccc1C1C(C#N)=C(N)Oc2c1oc(CO)cc2=O (configuration not stated),inactive: -5.64%
13,CC(C)n1c(CNC(=O)c2ccccc2F)nnc1SCC(=O)c1ccc(F)cc1,inactive: 9.33%
14,O=C(CSc1nnc(-c2ccc(Cl)cc2)n1Cc1ccco1)NCc1ccc2c(c1)OCO2,inactive: -4.82%
15,Cc1cc(CN(C)Cc2ccc(OCC(O)CN(C)Cc3ccccc3)cc2)on1 (configuration not stated),inactive: 3.34%
16,O=c1[nH]cnc2c1N=C(c1cccc([N+](=O)[O-])c1)CC(c1ccccc1)N2 (configuration not stated),inactive: 11.9%
17,O=c1c(NCCc2ccccc2)c(-c2ccccc2)c1=O,inactive: -0.492%
18,Cc1ccc(/C=C/C(=O)N2CC(=O)Nc3ccccc32)o1,inactive: 0.325%
19,O=C(CSc1nnc2c(n1)[nH]c1ccccc12)Nc1ccc(S(=O)(=O)Nc2ncccn2)cc1,inactive: -1.73%

# Reference: PubChem BioAssay AID1347073 (National Center for Advancing Translational Sciences (NCATS), 2019)
